# In PubChem BioAssay AID2675 (National Center for Advancing Translational Sciences (NCATS), 2010):
# Hit rate of the full screen: of about 280,000 compounds, about 100 (0.036%) were called active. Inconclusive results, whose numbers are uncertain, are shown with a selection of clear calls. Calls come from the whole dose curve; as a rule, active = well fitted inhibition curve with a large enough effect in the signal ratio, with a control signal flat (not every such curve was filed as active); inconclusive = small, poorly fitted or top-dose-only effect, or effect the other way, or a change in a side signal; inactive = no such curve, though single readings can be large or run the other way; the % refers to the signal ratio. Potencies of inconclusive entries are doubtful fits and often do not repeat. A note “side channel” means that the fit belongs to a control or component signal, not to the main read-out.
# Biological target: Muscleblind-like protein 1 (Homo sapiens) (UniProt Q9NR56)
# Chain of UniProt Q9NR56 (Q9NR56 whole entry, looked up): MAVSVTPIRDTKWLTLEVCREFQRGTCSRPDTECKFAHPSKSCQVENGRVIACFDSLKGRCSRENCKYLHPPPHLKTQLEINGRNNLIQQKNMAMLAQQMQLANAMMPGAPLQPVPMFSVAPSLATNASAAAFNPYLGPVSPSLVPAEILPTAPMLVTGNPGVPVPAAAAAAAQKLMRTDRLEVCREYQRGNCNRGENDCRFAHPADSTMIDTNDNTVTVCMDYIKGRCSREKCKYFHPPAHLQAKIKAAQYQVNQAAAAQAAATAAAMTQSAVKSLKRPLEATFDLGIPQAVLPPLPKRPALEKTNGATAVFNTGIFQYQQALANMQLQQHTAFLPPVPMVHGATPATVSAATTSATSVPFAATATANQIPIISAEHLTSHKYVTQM
# Assay: qHTS Assay for Inhibitors of MBNL1-poly(CUG) RNA binding
# Conditions: TR-FRET MBNL1-His/biotin-(CUG)12 binding, 665/545 ratio; activity change, negative = inhibition: at 57.5 µM (top of the series)
# In short: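 Compound titration spanned 92 nM–58 uM against the MBNL1-His/biotin-(CUG)12 complex. After 60 min at room temperature with 5 nM streptavidin-XL665 and 0.055 ng/ul terbium anti-His, ratiometric 665/545 nm emission (Ex 340 nm) normalized to controls.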
# % is set by controls: 0 for no effect and ±100 for the full control effect; potency is the fitted concentration of half-maximal effect; tags give direction and shape of the fitted curve or compound fluorescence and quenching.
SMILES,Potency,"activity change, negative = inhibition"
CCOC(=O)c1ccc(NC(=O)c2cn(-c3ccccc3)nc2-c2ccncc2)cc1,"inconclusive: 0.141 µM [quencher, side channel, full curve, poor fit]",–
CC(=O)c1ccc([N+](=O)[O-])c(CS(=O)(=O)c2ccc(Cl)cc2)c1,"inconclusive: 1.41 µM [quencher, side channel, full curve]",–
O=C(CSc1n[nH]c(-c2ccncc2)n1)NC1CCS(=O)(=O)C1 (stereo unspecified),active: 7.94 µM,–
O=C(N/N=C/c1c[nH]c2ccccc12)c1ccc([N+](=O)[O-])cc1Cl,"inconclusive: 28.2 µM [quencher, side channel, partial curve]",–
CC1CC(=O)N(c2ccc(NCCc3ccc(O)cc3)c([N+](=O)[O-])c2)C1=O (stereo unspecified),"inconclusive: 12.6 µM [quencher, side channel, partial curve]",–
COc1cc([N+](=O)[O-])ccc1NC(=O)CN1CCc2cc(OC)c(OC)cc2C1,"inconclusive: 15.8 µM [quencher, side channel, partial curve]",–
O=C(O)CCCCCNS(=O)(=O)c1cccc2nsnc12,"inconclusive: 15.8 µM [quencher, side channel, partial curve]",–
Cc1ccc(OCc2nnc(SCC(=O)c3ccccc3)n2-c2ccccc2)cc1,"inconclusive: 8.91 µM [quencher, side channel, partial curve]",–
Cc1ccccc1C(=O)NNC(=O)c1cccc([N+](=O)[O-])c1,"inconclusive: 12.6 µM [quencher, side channel, partial curve]",–
COc1cc2[nH]c(=S)nc(NCc3ccc(C)cc3)c2cc1OC,–,inactive: 12.6%
Cc1cccnc1Nc1ncnc(N)c1[N+](=O)[O-],"inconclusive: 22.4 µM [quencher, side channel, single point]",–
CC1CC(=O)N(c2ccc(NCc3ccccc3Cl)c([N+](=O)[O-])c2)C1=O (stereo unspecified),"inconclusive: 28.2 µM [quencher, side channel, partial curve]",–
COC(=O)/C(=C\c1c[nH]c2ccccc12)NC(C)=O,"inconclusive: 15.8 µM [quencher, side channel, partial curve]",–
Cn1cc(CNC(=O)c2sc3cccc(Cl)c3c2Cl)cn1,"inconclusive: 0.794 µM [quencher, side channel, partial curve, poor fit]",–
O=C(c1ccc(F)cc1)c1cn(Cc2ccc(F)cc2)c2cc3c(cc2c1=O)OCCO3,"inconclusive: 39.8 µM [fluorescent, side channel, single point]",–
NC(=O)C1CCN(C2=C(NS(=O)(=O)c3ccc(Br)cc3)C(=O)c3ccccc3C2=O)CC1,"inconclusive: 3.55 µM [quencher, side channel, partial curve]",–
CC1CN2C(c3ccc([N+](=O)[O-])cc3)=CSC2=N1 (stereo unspecified),"inconclusive: 15.8 µM [quencher, side channel, partial curve]",–
O=C(Nc1ccc(C(=O)O)cc1)/C(=C\c1ccc2c(c1)OCO2)NC(=O)c1ccc(Br)cc1,"inconclusive: 14.1 µM [quencher, side channel, partial curve]",–
O=C(C1CCCN(c2ncnc3c2nc2n3CCCCC2)C1)N1CCN(c2cccc(Cl)c2)CC1 (stereo unspecified),–,inactive: -3.58%
CCN1CC=C2C(C#N)=C(N)C(C#N)(C#N)[C@H](c3cccc(OC)c3OC)[C@H]2C1,"inconclusive: 14.1 µM [quencher, side channel, partial curve]",–
Cc1ccc(NC(=O)c2ccc(NCCN)c([N+](=O)[O-])c2)cc1Cl,"inconclusive: 8.91 µM [quencher, side channel, partial curve]",–

SMILES,Potency,"activity change, negative = inhibition"
CCCN1C2=NCCN2c2ccccc21,–,inactive: 9.08%
Nc1c(C(O)(C(F)(F)F)C(F)(F)F)ccc2ccccc12,"inconclusive: 15.8 µM [quencher, side channel, partial curve]",–
O=C(NCc1ccco1)/C(=C\c1cccs1)NC(=O)c1ccco1,–,inactive: 6.54%
COc1ccc(NS(=O)(=O)c2ccc3c(c2)CCN3C(=O)CCC(=O)O)cc1OC,–,inactive: -4.6%
NNC(=O)c1ccc(-c2cccc([N+](=O)[O-])c2)o1,"inconclusive: 15.8 µM [quencher, side channel, partial curve]",–
Cc1ccc(-n2c(=O)[nH]c3c(C(N)=O)nc(-c4ccc(C)o4)nc32)cc1,"inconclusive: 11.2 µM [quencher, side channel, partial curve]",–
Cc1cc(NC(=O)CCC(=O)N(Cc2cccnc2)C(C(=O)NC(C)(C)C)c2ccccc2Cl)no1 (stereo unspecified),–,inactive: -3.77%
CC1Oc2ccccc2OC1C(=O)Nc1ccccn1 (stereo unspecified),"inconclusive: 4.47 µM [quencher, side channel, full curve, poor fit]",–
O=C(O)CN1C(=O)c2cccc(Oc3ccc(Cl)cc3)c2C1=O,"inconclusive: 14.1 µM [quencher, side channel, partial curve]",–
Cc1ccc(N2C(=O)NC3(CCCCC3)C2=O)cc1,–,inactive: -4.26%
O=C(NCc1nc2ccccc2[nH]1)C1=C[C@@H](c2ccccc2)C[C@@H](OCc2ccc(CO)cc2)O1,–,inactive: 16.8%
COc1c2ccccc2nc2ccccc12,"inconclusive: 17.8 µM [quencher, side channel, single point]",–
COC(=O)c1ccc(Cn2cc(C(F)(F)F)cc([N+](=O)[O-])c2=O)cc1,"inconclusive: 11.2 µM [quencher, partial curve]",–
COC(=O)/C(N=Nc1cccc(C(F)(F)F)c1)=C(\C)O,"inconclusive: 20 µM [quencher, side channel, single point]",–
NC(=O)c1cc2ccc(O)cc2oc1=NCc1ccccc1,"inconclusive: 28.2 µM [quencher, side channel, single point]",–
Cc1cc(OCCCCNC(C)C)cc(C(C)C)c1,–,inactive: 2.94%
CCOc1ccc(/C=N/NC(=O)c2ccc(CSc3nc4ccccc4[nH]3)cc2)cc1,"inconclusive: 39.8 µM [fluorescent, side channel, single point]",–
CC1CN(C(=O)CSc2cn(CC(=O)N3CCOCC3)c3ccccc23)CC(C)O1 (stereo unspecified),–,inactive: -5.42%
O=C(c1ccccc1)N1CCN(c2ccc([N+](=O)[O-])c(NCC3CCCO3)c2)CC1 (stereo unspecified),"inconclusive: 15.8 µM [quencher, side channel, partial curve]",–
O=c1c(-c2ccc3c(c2)OCCO3)coc2cc(OC3OC(CO)C(O)C(O)C3O)ccc12 (stereo unspecified),–,inactive: 4.81%
CC(=O)N1CCC(=NNS(=O)(=O)c2cccc([N+](=O)[O-])c2)CC1,"inconclusive: 17.8 µM [quencher, side channel, partial curve]",–

SMILES,Potency,"activity change, negative = inhibition"
CN1CCN(S(=O)(=O)c2ccc3c4c(cccc24)C(=O)N3)CC1,"inconclusive: 14.1 µM [quencher, side channel, partial curve]",–
O=C(CNC(=O)c1ccc([N+](=O)[O-])cc1)N/N=C/c1c[nH]c2ccccc12,"inconclusive: 39.8 µM [quencher, single point]",–
NC(=O)C1CCN(c2ccc([N+](=O)[O-])cc2Cl)CC1,"inconclusive: 2.82 µM [quencher, side channel, full curve]",–
COc1ccc(-c2cc3nc4n(c(=O)c3s2)CCC4)cc1,"inconclusive: 2.51 µM [quencher, side channel, full curve]",–
Cc1ccc(OS(=O)Nc2cccc3nccnc23)cc1 (stereo unspecified),"inconclusive: 25.1 µM [quencher, side channel, partial curve]",–
COc1cc(NC(=O)Cc2ccccc2)c(C(=O)O)cc1OC,"inconclusive: 158 µM [inhibitor, partial curve]",–
CC(=O)Nc1ccc(C(=O)OCC(=O)Nc2ccc([N+](=O)[O-])cc2C(F)(F)F)cc1,"inconclusive: 15.8 µM [quencher, side channel, partial curve]",–
O=[N+]([O-])c1cc(C(F)(F)F)cc([N+](=O)[O-])c1N1CCN(S(=O)(=O)c2ccccc2)CC1,"inconclusive: 10 µM [quencher, side channel, partial curve]",–
O=[N+]([O-])c1ccc(N/N=C/c2ccccc2O)cc1,"inconclusive: 39.8 µM [quencher, side channel, partial curve]",–
Cc1cccnc1Nc1nc(-c2ccc(O)cc2O)cs1,–,inactive: 7.62%
Cc1nc(-c2ccccc2)sc1-c1ccnn1C,"inconclusive: 39.8 µM [quencher, side channel, single point]",–
O=C(N/N=C/c1ccc(F)c(F)c1)c1cc2c(s1)-c1ccccc1CC2,–,inactive: -4.93%
Cc1occc1C(=O)NNC(=O)Nc1ccc([N+](=O)[O-])cc1,"inconclusive: 10 µM [quencher, partial curve]",–
Cc1cc(C(=O)N/N=C/c2ccc(C)s2)n[nH]1,"inconclusive: 25.1 µM [quencher, side channel, partial curve]",–
O=C1C=CC(O)(c2cc(=O)c3c(O)cc(O)cc3o2)C=C1,–,inactive: -8.86%
CC(=NC(C)C)C1=C(O)CCC1=O,–,inconclusive: 1% [phenotype inactive]
c1ccc(-c2nc(N3CCCCC3)nc3ccccc23)cc1,"inconclusive: 63.1 µM [inhibitor, single point]",–
COc1ccc(/C=C2\OC(=S)N(C)C2=O)cc1,–,inactive: 39.1%
NC1=NC(=O)/C(=C\c2ccc(O)c([N+](=O)[O-])c2)S1,"inconclusive: 39.8 µM [quencher, single point]",–
